Screen size: about 350,000 compounds; about 9,900 (2.8%) were called active. Inconclusive means that the source gave no clear call. Such entries were picked first, then a sample of the others. The call rests on the fitted dose curve; in most records, active means well fitted activation curve with a large enough effect; inconclusive means small, poorly fitted or top-dose-only effect; inactive means no such curve, though single readings can be large or run the other way. No potency is given beside an inconclusive call; the fits are too rough.
assay: A quantitative high throughput screen for small molecules that induce DNA re-replication in MCF 10a normal breast cells.; further: nearly all actives have a fitted effect of over 50% in size; conditions: MCF 10A DNA re-replication, Hoechst nuclear intensity, 48 h; series mostly up to 46.1 µM
Potency means the concentration at half of the fitted maximal effect; tags describe the fitted curve by direction and shape.

| SMILES | Potency |
| --- | --- |
| CCOC(=O)C1CCN(Cc2ccc(OC)c(OCc3ccccc3)c2)CC1 | inconclusive [activator, partial curve, poor fit] |
| CC(=O)c1cccc(NC(=O)c2ccc(-c3ccccc3[N+](=O)[O-])o2)c1 | active: 18.4 µM |
| Cc1sc2nc(CSCC(=O)Nc3c(Cl)cccc3Cl)[nH]c(=O)c2c1C | inconclusive [activator, single point] |
| O=C(NC1CCCN(Cc2ccc(Cl)cc2)C1)c1ccccc1-c1ncc[nH]1 (stereo unspecified) | inconclusive [activator, partial curve, poor fit] |
| COc1cccc(-c2nnc3n2N=C(c2cc(OC)ccc2OC)CS3)c1 | inconclusive [activator, partial curve, poor fit] |
| c1cncc(-c2nnc(SCc3cccc4ccccc34)o2)c1 | inconclusive [activator, partial curve, poor fit] |
| N#Cc1c(-c2ccc(Cl)cc2)ccn2nc(C3CCCCC3)nc12 | inconclusive [activator, partial curve, poor fit] |
| COc1ccccc1OCC(=O)N1CCCC(Nc2ccc(C)c(C)c2)C1 (stereo unspecified) | inconclusive [activator, single point] |
| COc1ccc(Oc2ccc(C(F)(F)F)cc2N)cc1 | inconclusive [activator, partial curve, poor fit] |
| COC(=O)c1cccc(NC(=O)CN2C(=O)C3CCCCC3C2=O)c1 (stereo unspecified) | inactive |
| COc1ccc(C(=O)Nc2c(N)nc[nH]c2=O)cc1 | inactive |
| COC(=O)[C@@H](N)CS | inconclusive [activator, full curve, poor fit] |
| COc1ccc(OCc2cc(C(=O)N3CCCCCCC3)no2)c(Cl)c1 | inconclusive [activator, partial curve] |
| N#Cc1c(N)nc(SCC(=O)NC2CCCCC2)c(C#N)c1-c1ccc(Cl)cc1 | inconclusive [activator, partial curve, poor fit] |
| CN1CCN(CCCc2c3c(cc4c2CCC4)CCC3)CC1 | inconclusive [activator, single point] |
| COC(=O)C1CC2=C(CCCC2=O)N(c2ccccc2)C1=O (stereo unspecified) | inconclusive [activator, partial curve, poor fit] |
| Cc1ccccc1S(=O)(=O)NNC(=O)C(=O)NNc1ccccn1 | inconclusive [activator, single point] |
| CC(C)Oc1ccc(C(=O)Nc2ccc(N3CCN(C(=O)c4ccco4)CC3)cc2)cc1 | inconclusive [activator, partial curve] |
| Cc1ccc(-n2nnnc2Sc2nc([N+](=O)[O-])nn2C)c(C)c1 | inactive |
| COCCn1c(SCC(=O)NC2CCCC(C)C2C)nc2ccccc2c1=O (stereo unspecified) | inactive |
| O=C(C1=C(Nc2ccccc2)c2ccccc2S(=O)(=O)N1)c1ccccc1 | inconclusive [activator, single point] |
| CCn1cc(C(=O)O)c(=O)c2cc(F)c(N3CCN(S(=O)(=O)c4ccc(NC(=O)OC)cc4)CC3)cc21 | inactive |

| SMILES | Potency |
| --- | --- |
| CN(C)CCNC=C(C(=O)Nc1ccc(Cl)cc1Cl)C(=O)Nc1ccc(Cl)cc1Cl | inconclusive [activator, single point] |
| CN(C)c1ccc(C=C(c2nnnn2-c2ccccc2)c2nnnn2-c2ccccc2)cc1 | inconclusive [activator, partial curve, poor fit] |
| CNc1oc(Cc2cccc3ccccc23)nc1C#N | inconclusive [activator, partial curve, poor fit] |
| CCOC(=O)c1cc2c(ccn2C)n1Cc1cc(C)ccc1C | inactive |
| Cc1nc2c(C(=O)NCc3ccc4c(c3)OCO4)c[nH]n2c(=O)c1Cc1ccccc1F | active: 7.31 µM |
| CCN1CCN(CCCNC(=O)Cn2nc(C)n3nc(-c4ccccc4)cc3c2=O)CC1 | inconclusive [activator, full curve, poor fit] |
| COc1ccc(NC(=O)CN2CCc3ccccc3C2)cc1S(=O)(=O)N1CCOCC1 | inactive |
| Cc1cc(N2CCN(c3ccccc3)CC2)nc(-c2ccccc2)n1 | inconclusive [activator, single point] |
| O=C(/C=C/c1ccccc1)NC(=S)Nc1cccnc1 | inactive |
| Cc1cc(CSc2ccccc2)ccc1NC(=O)c1ccc(Cl)c([N+](=O)[O-])c1 | active: 18.4 µM |
| COc1cc(/C=C2\C(=N)N3N=C(C)SC3=NC2=O)cc(Cl)c1OCCOc1ccc(NC(C)=O)cc1 | inactive |
| Cc1cc(S(=O)(=O)NCc2ccccc2)ccc1OCC(=O)Nc1cccc([N+](=O)[O-])c1 | inconclusive [activator, partial curve, poor fit] |
| CC(=O)[C@@H]1[C@@H]2C(=O)N(Cc3ccccc3)C(=O)[C@@H]2C2c3ccccc3C=CN21 (stereo partly specified) | active: 5.8 µM |
| CCCCC(CC)CNC(=O)CCS(=O)(=O)c1cccc2nsnc12 (stereo unspecified) | inconclusive [activator, partial curve, poor fit] |
| COc1ccccc1CNC(=O)[C@H](C)NC(=O)C1CCN(C(=O)[C@@H](N)CCSC)CC1 | inactive |
| Cc1noc(/C=C/N(C)C)c1S(=O)(=O)N1CCC(C(=O)O)CC1 | inactive |
| Cc1ccc(-c2nc(NCCN(C)C)c3ccccc3n2)cc1 | inactive |
| O=C(CCC1CCCCC1)Nc1cc(Cl)ccc1N1CCOCC1 | inconclusive [activator, single point] |
| CS(=O)(=O)N(CC(=O)O)c1cc(C(F)(F)F)ccc1Cl | inactive |
| Cc1c(NC(=O)COc2cccc(F)c2)c(=O)n(-c2ccccc2)n1C | inconclusive [activator, single point] |
| NC(=O)c1cc2c3ccccc3ccn2c1-c1ccccc1 | inconclusive [activator, partial curve, poor fit] |
| O=[N+]([O-])c1cccc(S(=O)(=O)NCCCn2ccnc2)c1 | inconclusive [activator, partial curve, poor fit] |

| SMILES | Potency |
| --- | --- |
| Cc1ccc(S(N)(=O)=O)cc1NC(=O)/C=C/c1ccc2c(c1)OCO2 | inconclusive [activator, single point] |
| CC(CNc1nc2ccccc2n2cnnc12)c1ccccc1 (stereo unspecified) | inconclusive [activator, single point] |
| O=C(/C(=C/O)N=Nc1ccccc1Cl)c1ccccc1 | inconclusive [activator, partial curve, poor fit] |
| COc1cnc(-c2ccccn2)nc1Oc1ccc(Cl)cc1 | inconclusive [activator, partial curve, poor fit] |
| O=C1N=C2SCCN2/C1=C\c1c(Cl)cccc1Cl | inconclusive [activator, single point] |
| CCOC(=O)N1CCN(C2=C(NS(=O)(=O)c3ccccc3)C(=O)c3ccccc3C2=O)CC1 | inconclusive [activator, single point] |
| CCn1c(COc2ccccc2C)nnc1SCC(=O)N1CCN(c2ccccc2)CC1 | inactive |
| CCOC(=O)N1CCN(C(=O)c2ccc3c(=O)n(Cc4ccc(Cl)cc4)c(=S)[nH]c3c2)CC1 | inconclusive [activator, single point] |
| NNc1nc(N)c2c(n1)-c1ccccc1CC21CCCC1 | inconclusive [activator, single point] |
| O=C(/C=C/c1ccc(F)cc1)NCCCn1ccnc1 | inconclusive [activator, single point] |
| COc1ccc2cc(C(=O)NCc3ccccc3)c(=Nc3ccc(C(=O)O)cc3)oc2c1 | inconclusive [activator, partial curve, poor fit] |
| C=CCNC(=S)NNc1nc2c(c(=O)[nH]1)C1(CCCC1)Cc1ccccc1-2 | inactive |
| CCc1nccn1CCC(=O)NC1CCCc2c1cnn2-c1ccc(F)cc1F (stereo unspecified) | inactive |
| Cc1ccc(S(=O)(=O)N2CCN(c3ccc(N4CCOCC4)nn3)CC2)cc1[N+](=O)[O-] | inconclusive [activator, single point] |
| O=C1NC[C@H](Cc2ccccc2)N(C[C@H]2CCCN2C[C@H](Cc2ccccc2)N2C[C@H](Cc3ccccc3)N(CC3CCCCC3)C(=O)C2=O)C1=O | inconclusive [activator, partial curve, poor fit] |
| Cc1ccc(N/C(N)=N/c2nc(CSc3nnc(C)s3)cc(=O)[nH]2)c(C)c1 | active: 5.8 µM |
| COc1ccc(C(=NNc2ccccc2C(=O)O)c2ccc(OC)cc2)cc1 | inconclusive [activator, single point] |
| CN(Cc1ccccc1)C(=O)c1cccc(N2C(=O)C3CC=CCC3C2=O)c1 (stereo unspecified) | inconclusive [activator, single point] |
| Cc1cc(NC(=O)CCC(=O)N(Cc2ccco2)C2(C(=O)NC3CCCCC3)CCN(C)CC2)no1 | inconclusive [activator, single point] |
| COc1ccc(-c2c[n+]3c(n2-c2c(C)n(C)n(-c4ccccc4)c2=O)CCCCC3)cc1 | inactive |
| COc1ccc(CNC(=O)CSc2ccsc2[N+](=O)[O-])cc1 | inactive |
| CC1CCN(S(=O)(=O)c2ccc(NC(=O)[C@@H]3CCCN3C(=O)c3cccs3)cc2)CC1 | inactive |
